Source: the supplement of paper PMC9446081
Hit rate of the full screen: of about 39,000 compounds, about 220 (0.56%) showed activity. Some of the results follow.

system: Escherichia coli K-12 BW25113; assay: relative growth (OD600 normalised to plate interquartile mean) (fraction); higher = less growth inhibition, active = 0.2 or less; details: 50 µM; LB; incubation time: overnight (16-24 h)
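Note: static incubation at 37 °C against the wild-type strain, values averaged over two biological replicates.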

Row | SMILES | relative growth
1 | C[C@H](CO)N1C[C@H](C)[C@@H](CN(C)C(=O)NC2CCCCC2)Oc2ccc(NC(=O)Nc3ccc(C(F)(F)F)cc3)cc2C1=O | inactive: 0.998
2 | C[C@@H]1CN([C@H](C)CO)C(=O)c2cc(NC(=O)CCCN(C)C)ccc2O[C@@H]1CN(C)Cc1ccncc1 | inactive: 0.966
3 | C[C@@H]1CCCCO[C@@H](CN(C)S(=O)(=O)c2ccc(Cl)cc2)[C@@H](C)CN([C@@H](C)CO)C(=O)c2cc(NC(=O)C3CCCCC3)ccc2O1 | inactive: 1.02
4 | C[C@@H]1CN([C@H](C)CO)C(=O)c2cc(NS(=O)(=O)c3cn(C)cn3)ccc2O[C@H]1CN(C)S(=O)(=O)c1cccs1 | inactive: 0.98
5 | COc1ccc(CN(C)C[C@@H]2OCCCC[C@@H](C)Oc3ccc(NS(=O)(=O)c4ccc(Cl)cc4)cc3C(=O)N([C@@H](C)CO)C[C@@H]2C)cc1 | inactive: 0.985
6 | Cc1cccn2c(=O)c(-c3nnn[n-]3)cnc12.[K+] | inactive: 1.05
7 | C[C@H]1CN([C@@H](C)CO)C(=O)c2cc(C#CC3CCCCC3)cnc2O[C@@H]1CN(C)C(=O)Cc1ccccn1 | inactive: 0.979
8 | C=CC(=O)Nc1ccc([C@@H](CCc2ccc(OC)c(OC)c2)OC(=O)[C@@H]2CCCCN2C(=O)C(=O)C(C)(C)CC)cc1 | inactive: 1.04
9 | C[C@H](CO)N1C[C@H](C)[C@@H](CN(C)CC2CCCCC2)OCc2ccccc2-c2c(n(C)c3ccccc23)C1=O | inactive: 0.952
10 | COc1ccc2c3c([nH]c2c1)[C@H](CO)N(C[C@]13CN(C1)C(=O)Cc1cccnc1)S(=O)(=O)c1ccc(cc1)C | inactive: 0.987
11 | Cc1noc(C)c1S(=O)(=O)N(C)C[C@H]1Oc2ccc(NC(=O)CCN3CCOCC3)cc2CC(=O)N([C@@H](C)CO)C[C@H]1C | inactive: 1.01
12 | C/N=C1/S[C@@H]2CS(=O)(=O)C[C@@H]2N1C | inactive: 1.02
13 | Cc1ccccc1S(=O)(=O)N1C[C@@H](O)COC[C@H]2O[C@@H](CC(=O)N3CCN(C)CC3)CC[C@@H]21 | inactive: 0.985
14 | COc1ccc(S(=O)(=O)N(C)C[C@@H]2Oc3ccc(NS(C)(=O)=O)cc3C(=O)N([C@@H](C)CO)C[C@@H]2C)cc1 | inactive: 1
15 | C[C@H]1CN([C@@H](C)CO)C(=O)c2cccc(NC(=O)CCCCCC(=O)Nc3ccccc3N)c2O[C@@H]1CN(C)C(=O)Nc1cccc2ccccc12 | inactive: 0.992
16 | COc1cccc(-c2ccc3c(c2)O[C@H](CN(C)Cc2cncnc2)[C@@H](C)CN([C@@H](C)CO)S3(=O)=O)c1 | inactive: 1.01
17 | O=C(C[C@@H]1CC[C@@H]2[C@H](COC[C@@H](O)CN2S(=O)(=O)c2cccc(Cl)c2)O1)N1CCOCC1 | inactive: 1.01
18 | CC1(C)OC(=O)C2(C(=O)O1)[C@@H](c1ccc(-c3cccc(-c4ccc(C(=O)O)cc4)c3)cc1)CC(=O)C[C@H]2c1ccccc1 | inactive: 0.943

Row | SMILES | relative growth
19 | C[C@H](CO)N1C[C@H](C)[C@@H](CN(C)C(=O)Nc2ccc(N3CCCCC3)cc2)OCc2cnnn2CCCC1=O | inactive: 0.841
20 | C[C@H](CO)N1C[C@H](C)[C@H](CN(C)C(=O)c2ccc(N3CCN(C)CC3)cc2)OCc2cn(nn2)CCCC1=O | inactive: 1
21 | C[C@H]1CCCCO[C@H](CN(C)Cc2ccc3c(c2)OCO3)[C@@H](C)CN([C@@H](C)CO)C(=O)c2cc(NC(=O)Nc3ccc(F)cc3)ccc2O1 | inactive: 0.995
22 | COc1ccc(S(=O)(=O)Nc2cccc3c2O[C@H](CN(C)Cc2ccncc2)[C@H](C)CN([C@@H](C)CO)C3=O)cc1 | inactive: 1.03
23 | C[C@H]1O[C@@H](OC(=O)[C@]23CCC(C)(C)C[C@H]2C2=CC[C@H]4[C@@]5(C)CC[C@H](O[C@@H]6O[C@H](C(=O)O)[C@@H](O)[C@H](O[C@@H]7OC[C@@H](O)[C@H](O)[C@H]7O)[C@H]6O[C@@H]6O[C@H](CO)[C@H](O)[C@H](O)[C@H]6O)[C@@](C)(C=O)[C@@H]5CC[C@@]4(C)[C@]2(C)C[C@H]3O)[C@H](O[C@H]2O[C@@H](CO)[C@@H](O)[C@@H](O)[C@@H]2O)[C@@H](O)[C@H]1O[C@@H]1O[C@H](C)[C@@H](O[C@H]2OC[C@@H](O)[C@@H](O)[C@@H]2O)[C@H](O)[C@@H]1O | inactive: 0.992
24 | COc1ccc(COC[C@@H](C)N2C[C@H](C)[C@H](CN(C)S(=O)(=O)c3ccc(Cl)cc3)Oc3ccc(NC(=O)NC(C)C)cc3C2=O)cc1 | inactive: 1.02
25 | C[C@H](CO)N1C[C@H](C)[C@H](CN(C)C(=O)Nc2cccc3ccccc23)Oc2ccc(NC(=O)Nc3ccc4c(c3)OCO4)cc2C1=O | inactive: 1.01
26 | COc1ccc(-c2oc3c(CC=C(C)C)c(OC4OC(CO)C(O)C(O)C4O)cc(O)c3c(=O)c2OC2OC(C)C(O)C(O)C2O)cc1 (stereo unspecified) | inactive: 1.08
27 | CN(C)CCCSC(=N)N | inactive: 1.02
28 | C[C@@H]1CN([C@@H](C)CO)C(=O)c2cc(NC(=O)Cn3cnnn3)ccc2O[C@H]1CN(C)C(=O)Nc1ccc(F)cc1 | inactive: 0.966
29 | C[C@@H]1CN([C@@H](C)CO)C(=O)c2cc(NC(=O)CCN3CCOCC3)ccc2O[C@H]1CN(C)S(=O)(=O)c1ccccc1 | inactive: 1.01
30 | C[C@@H]1CN([C@@H](C)CO)C(=O)c2cc(NC(=O)NC3CCCCC3)ccc2O[C@@H]1CN(C)Cc1ccc(Cl)c(Cl)c1 | inactive: 1.01
31 | C[C@@H](C(=O)O)n1ncccc1=O | inactive: 1.02
32 | CCNC(=O)CC[C@@H](N)C(=O)O | inactive: 1.02
33 | C[C@H](CO)N1C[C@H](C)[C@H](CN(C)Cc2ccc(Cl)c(Cl)c2)Oc2ccc(NC(=O)Nc3ccccc3)cc2CC1=O | inactive: 1
34 | C[C@@H]1CN([C@@H](C)CO)S(=O)(=O)c2ccc(C#CCC3CCCC3)cc2O[C@@H]1CN(C)C(=O)c1cnccn1 | inactive: 1.04
35 | COc1ccc(CN(C)C[C@@H]2OCCCC[C@@H](C)Oc3ccc(NC(=O)Cc4ccccc4)cc3C(=O)N([C@@H](C)CO)C[C@H]2C)cc1 | inactive: 0.998
36 | NCCNCCNCCN | inactive: 1.01
